# Test results reported in the supplement of paper PMC8728848.
# Some of the results follow.
# B1: ConA (Canavalia ensiformis), P02866 (protein)
# chain: MAISKKSSLFLPIFTFITMFLMVVNKVSSSTHETNALHFMFNQFSKDQKDLILQGDATTGTDGNLELTRVSSNGSPQGSSVGRALFYAPVHIWESSAVVASFEATFTFLIKSPDSHPADGIAFFISNIDSSIPSGSTGRLLGLFPDANVIRNSTTIDFNAAYNADTIVAVELDTYPNTDIGDPSYPHIGIDIKSVRSKKTAKWNMQNGKVGTAHIIYNSVDKRLSAVVSYPNADSATVSYDVDLDNVLPEWVRVGLSASTGLYKETNTILSWSFTSKLKSNEIPDIATVV
# Legend:
# Assay in all cases: glycan array binding signal (z-score within array); higher = stronger binding
# Details in all cases: glycan notation: IUPAC condensed, linker removed
# Kdn(a2-3)Gal(b1-3)GalNAc = molecular target: Kdn(a2-3)Gal(b1-3)GalNAc
# Summary of the method: (§1)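 Glycan array data came from 3228 arrays in the Consortium for Functional Glycomics database, and only arrays with an available protein sequence were kept. Glycan names were put into IUPAC-condensed notation, and columns mapping to the same glycan were averaged. The binding signal is a within-array Z-score, averaged across arrays of one protein sequence run at different concentrations or buffers and across linkers. A negative Z-score can be read as non-binding.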
# Kdn(a2-3)Gal(b1-3)GlcNAc = molecular target: Kdn(a2-3)Gal(b1-3)GlcNAc
# Summary of the method: as §1
# Kdn(a2-3)Gal(b1-4)Glc = molecular target: Kdn(a2-3)Gal(b1-4)Glc
# Summary of the method: as §1
# Kdn(a2-3)Gal(b1-4)GlcNAc = molecular target: Kdn(a2-3)Gal(b1-4)GlcNAc
# Summary of the method: as §1
# [1] = molecular target: Kdn(a2-3)Gal(b1-4)[Fuc(a1-3)]GlcNAc
# Summary of the method: as §1
# Kdn(a2-6)Gal(b1-4)GlcNAc = molecular target: Kdn(a2-6)Gal(b1-4)GlcNAc
# Summary of the method: as §1
# [2] = molecular target: Man(a1-2)Man(a1-2)Man(a1-3)Man
# Summary of the method: as §1
# [3] = molecular target: Man(a1-2)Man(a1-2)Man(a1-6)[Man(a1-3)]Man
# Summary of the method: as §1
# Man(a1-2)Man(a1-3)Man = molecular target: Man(a1-2)Man(a1-3)Man
# Summary of the method: as §1
# [4] = molecular target: Man(a1-2)Man(a1-3)[Man(a1-2)Man(a1-6)]Man
# Summary of the method: as §1
# [5] = molecular target: Man(a1-2)Man(a1-3)[Man(a1-2)Man(a1-6)]Man(a1-6)[Man(a1-2)Man(a1-2)Man(a1-3)]Man
# Summary of the method: as §1
# [6] = molecular target: Man(a1-2)Man(a1-3)[Man(a1-2)Man(a1-6)]Man(a1-6)[Man(a1-2)Man(a1-2)Man(a1-3)]Man(b1-4)GlcNAc(b1-4)GlcNAc
# Summary of the method: as §1
# [7] = molecular target: Man(a1-2)Man(a1-3)[Man(a1-2)Man(a1-6)]Man(a1-6)[Man(a1-3)[Man(a1-6)]Man(a1-6)]Man(b1-4)GlcNAc(b1-4)GlcNAc
# Summary of the method: as §1
# [8] = molecular target: Man(a1-2)Man(a1-3)[Man(a1-6)]Man(a1-6)[Man(a1-2)Man(a1-3)]Man(b1-4)GlcNAc(b1-4)GlcNAc
# Summary of the method: as §1
# [9] = molecular target: Man(a1-2)Man(a1-6)[Man(a1-3)]Man(a1-6)[Man(a1-2)Man(a1-2)Man(a1-3)]Man
# Summary of the method: as §1
# [10] = molecular target: Man(a1-2)Man(a1-6)[Man(a1-3)]Man(a1-6)[Man(a1-2)Man(a1-2)Man(a1-3)]Man(b1-4)GlcNAc(b1-4)GlcNAc
# Summary of the method: as §1
# Man(a1-3)[Man(a1-6)]Man = molecular target: Man(a1-3)[Man(a1-6)]Man
# Summary of the method: as §1
# [11] = molecular target: Man(a1-3)[Man(a1-6)]Man(a1-6)[Man(a1-2)Man(a1-3)]Man(b1-4)GlcNAc(b1-4)GlcNAc
# Summary of the method: as §1
# [12] = molecular target: Man(a1-3)[Man(a1-6)]Man(a1-6)[Man(a1-3)]Man
# Summary of the method: as §1
# [13] = molecular target: Man(a1-3)[Man(a1-6)]Man(a1-6)[Man(a1-3)]Man(b1-4)GlcNAc(b1-4)GlcNAc
# Summary of the method: as §1
# [14] = molecular target: Man(a1-3)[Man(a1-6)]Man(b1-4)GlcNAc(b1-4)GlcNAc
# Summary of the method: as §1
# Man(a1-6)Man = molecular target: Man(a1-6)Man
# Summary of the method: as §1
# Man(b1-4)GlcNAc = molecular target: Man(b1-4)GlcNAc
# Summary of the method: as §1
# Neu5Ac(a2-3)Gal = molecular target: Neu5Ac(a2-3)Gal
# Summary of the method: as §1
# [15] = molecular target: Neu5Ac(a2-3)Gal(b1-3)GalNAc
# Summary of the method: as §1
# [16] = molecular target: Neu5Ac(a2-3)Gal(b1-3)GalNAc(b1-3)Gal(a1-4)Gal(b1-4)Glc
# Summary of the method: as §1
# [17] = molecular target: Neu5Ac(a2-3)Gal(b1-3)GalNAc(b1-3)Gal(b1-4)GlcNAc
# Summary of the method: as §1
# [18] = molecular target: Neu5Ac(a2-3)Gal(b1-3)GalNAc(b1-4)[Neu5Ac(a2-3)]Gal(b1-4)Glc
# Summary of the method: as §1
# [19] = molecular target: Neu5Ac(a2-3)Gal(b1-3)GalNAc(b1-4)[Neu5Ac(a2-8)Neu5Ac(a2-3)]Gal(b1-4)Glc
# Summary of the method: as §1
# [20] = molecular target: Neu5Ac(a2-3)Gal(b1-3)GalNAc6S
# Summary of the method: as §1
# [21] = molecular target: Neu5Ac(a2-3)Gal(b1-3)GlcNAc
# Summary of the method: as §1
# [22] = molecular target: Neu5Ac(a2-3)Gal(b1-3)GlcNAc(b1-2)Man(a1-3)[Neu5Ac(a2-3)Gal(b1-3)GlcNAc(b1-2)Man(a1-6)]Man(b1-4)GlcNAc(b1-4)GlcNAc
# Summary of the method: as §1
# [23] = molecular target: Neu5Ac(a2-3)Gal(b1-3)GlcNAc(b1-3)Gal(b1-3)GlcNAc
# Summary of the method: as §1
# [24] = molecular target: Neu5Ac(a2-3)Gal(b1-3)GlcNAc(b1-3)Gal(b1-4)GlcNAc
# Summary of the method: as §1
# [25] = molecular target: Neu5Ac(a2-3)Gal(b1-3)GlcNAc(b1-3)GalNAc
# Summary of the method: as §1
# [26] = molecular target: Neu5Ac(a2-3)Gal(b1-3)GlcNAc6S
# Summary of the method: as §1
# [27] = molecular target: Neu5Ac(a2-3)Gal(b1-3)[Fuc(a1-4)]GlcNAc
# Summary of the method: as §1
# [28] = molecular target: Neu5Ac(a2-3)Gal(b1-3)[Fuc(a1-4)]GlcNAc(b1-3)Gal(b1-3)[Fuc(a1-4)]GlcNAc
# Summary of the method: as §1
binder,measurement,setting,value
B1,glycan array binding signal (z-score),Kdn(a2-3)Gal(b1-3)GalNAc,-0.241
same,glycan array binding signal (z-score),Kdn(a2-3)Gal(b1-3)GlcNAc,-0.271
same,glycan array binding signal (z-score),Kdn(a2-3)Gal(b1-4)Glc,-0.278
same,glycan array binding signal (z-score),Kdn(a2-3)Gal(b1-4)GlcNAc,-0.242
same,glycan array binding signal (z-score),[1],-0.189
same,glycan array binding signal (z-score),Kdn(a2-6)Gal(b1-4)GlcNAc,-0.265
same,glycan array binding signal (z-score),[2],3.26
same,glycan array binding signal (z-score),[3],4.9
same,glycan array binding signal (z-score),Man(a1-2)Man(a1-3)Man,3.52
same,glycan array binding signal (z-score),[4],3.94
same,glycan array binding signal (z-score),[5],7.48
same,glycan array binding signal (z-score),[6],3.33
same,glycan array binding signal (z-score),[7],3.78
same,glycan array binding signal (z-score),[8],3.79
same,glycan array binding signal (z-score),[9],7.39
same,glycan array binding signal (z-score),[10],4.46
same,glycan array binding signal (z-score),Man(a1-3)[Man(a1-6)]Man,5.51
same,glycan array binding signal (z-score),[11],4.75
same,glycan array binding signal (z-score),[12],4.27
same,glycan array binding signal (z-score),[13],3.83
same,glycan array binding signal (z-score),[14],3.48
same,glycan array binding signal (z-score),Man(a1-6)Man,-0.204
same,glycan array binding signal (z-score),Man(b1-4)GlcNAc,-0.272
same,glycan array binding signal (z-score),Neu5Ac(a2-3)Gal,-0.283
same,glycan array binding signal (z-score),[15],-0.278
same,glycan array binding signal (z-score),[16],-0.203
same,glycan array binding signal (z-score),[17],-0.314
same,glycan array binding signal (z-score),[18],-0.252
same,glycan array binding signal (z-score),[19],-0.248
same,glycan array binding signal (z-score),[20],-0.279
same,glycan array binding signal (z-score),[21],-0.274
same,glycan array binding signal (z-score),[22],-0.354
same,glycan array binding signal (z-score),[23],-0.175
same,glycan array binding signal (z-score),[24],-0.256
same,glycan array binding signal (z-score),[25],-0.092
same,glycan array binding signal (z-score),[26],-0.136
same,glycan array binding signal (z-score),[27],-0.242
same,glycan array binding signal (z-score),[28],-0.22
